Laboratory results published in PubChem BioAssay AID1030 (National Center for Advancing Translational Sciences (NCATS), 2008).
Out of some 220,000 compounds screened, about 16,000 (7.3%) were called active. Inconclusive means that the source gave no clear call. Such entries were picked first, then a sample of the others. Calls follow the shape of the dose curve; as a rule, active = well fitted inhibition curve with a large enough effect (not every such curve was filed as active); inconclusive = small, poorly fitted or top-dose-only effect, or another doubt; inactive = no such curve, though single readings can be large or run the other way. Potencies of inconclusive entries are left out as doubtful fits.

Target: Aldehyde dehydrogenase 1A1 (Homo sapiens) (UniProt P00352)
Experiment: qHTS Assay for Inhibitors of Aldehyde Dehydrogenase 1 (ALDH1A1);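 as to activity, negative = inhibition: plate controls were no enzyme wells and a reference inhibitor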
Details: Purified ALDH1A1, NADH fluorescence, propionaldehyde substrate; series mostly up to 75.3 µM; activity, negative = inhibition: at the top concentration
Potency is read from the fitted curve at half-maximal effect; tags tell the direction and shape of the fitted curve.

Chain of UniProt P00352 (P00352 whole entry, looked up): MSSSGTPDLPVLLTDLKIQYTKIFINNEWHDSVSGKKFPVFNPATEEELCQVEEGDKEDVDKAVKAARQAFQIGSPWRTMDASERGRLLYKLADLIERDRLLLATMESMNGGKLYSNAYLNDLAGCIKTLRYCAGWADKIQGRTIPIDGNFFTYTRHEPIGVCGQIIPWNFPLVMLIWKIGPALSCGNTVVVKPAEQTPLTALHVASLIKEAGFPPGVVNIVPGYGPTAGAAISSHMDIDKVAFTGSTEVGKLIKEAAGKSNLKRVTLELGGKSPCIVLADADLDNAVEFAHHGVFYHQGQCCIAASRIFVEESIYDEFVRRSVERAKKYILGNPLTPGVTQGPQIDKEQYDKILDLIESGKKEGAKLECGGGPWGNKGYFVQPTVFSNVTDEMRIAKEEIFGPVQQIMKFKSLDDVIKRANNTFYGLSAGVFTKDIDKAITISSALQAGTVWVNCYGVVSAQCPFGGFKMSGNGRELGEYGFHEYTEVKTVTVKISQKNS

Question: For `O=C(NCc1n[nH]c(=S)n1-c1ccc(F)cc1)c1ccc(S(=O)(=O)N2CCCC2)cc1`, which Potency is on record?
Answer: Its Potency is active: 15.8 µM.

Question: How did the Potency turn out when `COc1cc(C)ccc1N(CCCN1C(=O)c2cccc3cccc(c23)C1=O)C(=O)c1cccs1` was run?
Answer: The Potency was inconclusive [inhibitor, single point].

Question: With `CCOC(=O)c1ccc(NC(=S)Nc2ccccc2)cc1` as the compound, how does the Potency read?
Answer: The Potency was inconclusive [inhibitor, single point].

Question: With `S=C(Nc1ccccc1Cl)N1CCOCC1` as the compound, how does the “activity, negative = inhibition” value read?
Answer: Its value is inactive: 2.47%.

Question: How did the Potency turn out when `COC(=O)C1=C(C)NC2=C(C(=O)c3ccccc32)C1c1ccc(-c2ccc(C(=O)O)cc2)o1` (centres undefined) was run?
Answer: The Potency was active: 3.16 µM.

Question: With `COc1ccc(OC)c(/C=C/C(=O)OCC(=O)Nc2ccc(Cl)c(S(=O)(=O)N(C)C)c2)c1` as the compound, how does the Potency read?
Answer: Its Potency is inconclusive [inhibitor, partial curve].

Question: With `COc1ccc(NS(=O)(=O)c2ccc(O)c(C(=O)OCC(=O)NC3CCCCC3)c2)cc1` as the compound, how does the Potency read?
Answer: The Potency was inconclusive [inhibitor, partial curve].

Question: `CCCn1c2ccccc2c2nnc(SCC(=O)Nc3c(C)n(C)n(-c4ccccc4)c3=O)nc21` was tested. Which Potency did it give?
Answer: The Potency was inconclusive [inhibitor, single point].

Question: Which Potency does the source give for `COc1cccc2cc(C(=O)NCc3ccco3)c(=O)oc12` here?
Answer: The Potency was inconclusive [inhibitor, partial curve, poor fit].

Question: For `CC(=O)Nc1nc(C)c(-c2csc(Nc3cccc([N+](=O)[O-])c3)n2)s1`, which “activity, negative = inhibition” value is on record?
Answer: Its value is inactive: -4.25%.

Question: `COc1ccc(C(=O)OCC(=O)Nc2ccc([N+](=O)[O-])cc2OC)c(O)c1` was tested. Which “activity, negative = inhibition” value did it give?
Answer: Its value is inactive: 6.75%.

Question: For `O=C1C2C3C=CC(CC3)C2C(=O)N1/N=C/c1c[nH]c2ccccc12` (centres undefined), which Potency is on record?
Answer: The Potency was inconclusive [inhibitor, single point].

Question: `NC(N)=N/N=C(/c1ccccc1)c1ccc(O)cc1O` was tested. Which activity, negative = inhibition did it give?
Answer: Its activity, negative = inhibition is inactive: -2.42% [at 13.5 µM].

Question: Which Potency does the source give for `CCOc1c2ccc(C(=O)NCc3cc(C(F)(F)F)cc(C(F)(F)F)c3)cc2nn1CCOC` here?
Answer: Its Potency is inconclusive [inhibitor, partial curve].

Question: How did the “activity, negative = inhibition” value turn out when `O=C(COC(=O)c1cc(S(=O)(=O)N2CCOCC2)cs1)c1ccccc1` was run?
Answer: Its value is inactive: -2.89%.

Question: With `COC(=O)c1sccc1NC(=O)c1ccccc1[N+](=O)[O-]` as the compound, how does the Potency read?
Answer: The Potency was inconclusive [inhibitor, single point].

Question: How did the Potency turn out when `CC1CCCC/C1=N\NS(=O)(=O)c1ccc(Br)cc1` (centres undefined) was run?
Answer: The Potency was active: 4.47 µM.

Question: For `Cc1ccc(Cn2c(=N)c(C(=O)NCc3ccco3)cc3c(=O)n4ccccc4nc32)cc1`, which Potency is on record?
Answer: Its Potency is inconclusive [inhibitor, partial curve].

Question: How did the Potency turn out when `CCOc1ccc2[nH]c(=O)c(CN(CCN3CCCC3)C(=S)Nc3ccccc3OCC)cc2c1` was run?
Answer: Its Potency is inconclusive [inhibitor, single point].

Question: For `CC(Sc1ncnc2ccccc12)C(=O)Nc1ccc2c(c1)OCCO2` (centres undefined), which Potency is on record?
Answer: The Potency was inconclusive [inhibitor, single point].

Question: How did the Potency turn out when `Cc1c(Cc2ccccc2)sc(NC(=O)C(C)(C)C)c1C(N)=O` was run?
Answer: The Potency was active: 8.91 µM.

Question: `COc1cc(S(=O)(=O)N2CCOCC2)ccc1NC(=O)COc1ccc(N(C)S(=O)(=O)c2ccc(C)cc2)cc1` was tested. Which “activity, negative = inhibition” value did it give?
Answer: The value was inactive: 11.5%.

Question: With `Cc1ccc(C(=O)OCC(=O)Nc2ncc(Cl)cc2Cl)cc1NC(=O)c1ccco1` as the compound, how does the Potency read?
Answer: The Potency was inconclusive [inhibitor, single point].

Question: With `COc1cc([N+](=O)[O-])ccc1N=Nc1c(N)[nH]n(-c2ccccc2)c1=O` as the compound, how does the Potency read?
Answer: Its Potency is inconclusive [inhibitor, single point].

Question: With `O=C(NCc1cccs1)c1cc(-c2ccccn2)nc2ccc(Br)cc12` as the compound, how does the “activity, negative = inhibition” value read?
Answer: The value was inactive: 6.33%.

Question: Which Potency does the source give for `CCOC(=O)c1ccc(N2C(=O)C3CC=C(C)CC3C2=O)cc1` (centres undefined) here?
Answer: Its Potency is inconclusive [inhibitor, single point].

Question: With `CC(C)(C)CC(C)(C)NC1=CC(=O)OC12CCCCC2` as the compound, how does the Potency read?
Answer: The Potency was inconclusive [inhibitor, single point].

Question: With `COC(=O)c1ccccc1NC(=S)N(Cc1ccc2c(c1)OCO2)Cc1cc2ccc(C)cc2[nH]c1=O` as the compound, how does the Potency read?
Answer: Its Potency is inconclusive [inhibitor, partial curve].

Question: `Cc1cc(C)c(C#N)c(SCC(=O)c2cccs2)n1` was tested. Which Potency did it give?
Answer: Its Potency is inconclusive [inhibitor, single point].

Question: How did the Potency turn out when `CCCc1[nH]nc2c1C(c1ccc(OC(=O)N3CCOCC3)c(OC)c1)C(C#N)=C(N)O2` (centres undefined) was run?
Answer: The Potency was inconclusive [inhibitor, single point].

Question: For `CCN(CC)C1=N/C(=C\c2ccc(OC)cc2)C(=O)N1c1ccccc1`, which Potency is on record?
Answer: The Potency was inconclusive [inhibitor, partial curve].

Question: For `CN(C)c1ncc2nc(-c3ccc(F)cc3)c(=O)n(C3CC3)c2n1`, which Potency is on record?
Answer: Its Potency is inconclusive [inhibitor, partial curve, poor fit].

Question: How did the “activity, negative = inhibition” value turn out when `O=C(COC(=O)Cc1ccc(-c2ccccc2)cc1)NCc1ccc(F)cc1` was run?
Answer: Its value is inactive: -4.77%.

Question: With `COc1ccccc1NS(=O)(=O)c1cc(NC(=S)NCCN2CCOCC2)ccc1N1CCOCC1` as the compound, how does the Potency read?
Answer: The Potency was active: 25.1 µM.

Question: How did the Potency turn out when `CCN1C(=O)N/C(=C/c2cc(C)n(Cc3ccccc3)c2C)C1=O` was run?
Answer: The Potency was inconclusive [inhibitor, partial curve].

Question: How did the Potency turn out when `Cc1ccc(-c2ncccc2OC(=O)C23CC4CC(CC(C4)C2)C3)cc1` was run?
Answer: The Potency was inconclusive [inhibitor, single point].

Question: For `O=C(CSc1nnc(SCc2ccccc2)s1)N/N=C/C=C\c1ccco1`, which Potency is on record?
Answer: The Potency was active: 17.8 µM.

Question: How did the Potency turn out when `O=c1c2ccccc2n2c(-c3cccc(F)c3)nnc2n1Cc1ccccc1` was run?
Answer: The Potency was inconclusive [inhibitor, partial curve, poor fit].

Question: For `CCOc1ccc(S(=O)(=O)Nc2nc3ccc(OC)cc3s2)cc1`, which “activity, negative = inhibition” value is on record?
Answer: The value was inactive: 4.85%.

Question: How did the “activity, negative = inhibition” value turn out when `O=C(COC(=O)C1CCCCC1C(=O)N1CCc2ccccc21)NCc1ccco1` (centres undefined) was run?
Answer: Its value is inactive: -3.33%.

Question: How did the Potency turn out when `Cc1cccc(-n2cc(CN3CCCN(C=O)CC3)c(-c3cccc(F)c3)n2)c1` was run?
Answer: The Potency was active: 10 µM.

Question: For `Cn1cc(Br)c(C(=O)Nc2sc3c(c2C(N)=O)CCC3)n1`, which Potency is on record?
Answer: Its Potency is inconclusive [inhibitor, full curve, poor fit].

Question: How did the “activity, negative = inhibition” value turn out when `O=C(COc1ccc(Cl)cc1)Nc1ccc(Cl)cn1` was run?
Answer: The value was inactive: 1.3%.

Question: Which “activity, negative = inhibition” value does the source give for `CCCCc1ccc(S(N)(=O)=O)cc1` here?
Answer: The value was inactive: -5.42%.
